# Test results: PubChem BioAssay AID588855 (National Center for Advancing Translational Sciences (NCATS), 2011)
# The whole screen tested about 410,000 compounds, of which about 5,000 (1.2%) were called active. Inconclusive means that the source gave no clear call. Such entries were picked first, then a sample of the others. Calls follow the shape of the dose curve; as a rule, active = well fitted inhibition curve with a large enough effect; inconclusive = small, poorly fitted or top-dose-only effect; inactive = no such curve, though single readings can be large or run the other way. A potency beside an inconclusive call is a rough fit, not a confirmed value.
# Assay: qHTS for Inhibitors of TGF-b; also: nearly all actives have a fitted effect of over 65% in size
# Settings: HepG2 CAGA-GFP TGF-b/SMAD3 reporter, GFP fluorescence, 18 h, TGF-beta stimulated, 500 pg/mL final; series mostly up to 46.1 µM; activity, negative = inhibition: at the top concentration
# Procedure, shortened: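 Inhibition was scored as loss of TGF-beta-induced (500 pg/mL final, 18 hours, 37 degrees C) GFP in HEPG2 cells carrying a CAGA-GFP reporter, in DMEM with 1% FBS. Well GFP was summed per cell; Activity was normalised to unstimulated and stimulated DMSO wells, then concentration-response fitting.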
# % is scaled to controls: 0 for no effect and ±100 for the full control effect; potency is read from the fitted curve at half-maximal effect; tags tell the direction and shape of the fitted curve.
SMILES,Potency,"activity, negative = inhibition"
COc1cccc(CNCc2cccn2-c2nnc(N3CCN(c4ccccc4)CC3)s2)c1,"inconclusive: 20 µM [inhibitor, single point]",
O=C(CCNc1ccc(F)c(Cl)c1)c1ccco1,"inconclusive: 17.8 µM [inhibitor, single point]",
O=S(=O)(c1ccc2c(c1)OCCO2)N1CCC(c2nc3ccc(Cl)cc3[nH]2)CC1,"inconclusive: 1.26 µM [inhibitor, full curve, poor fit]",
Cc1cccc2nc(CSc3nc4[nH]ncc4c(=O)n3-c3ccccc3Cl)cc(=O)n12,"inconclusive: 4.47 µM [inhibitor, full curve, poor fit]",
Cc1cnc(NC(=O)NCC2CCCC(CNC(=O)Nc3ncc(C)s3)C2)s1 (stereo not given),"inconclusive: 35.5 µM [inhibitor, partial curve, poor fit]",
COc1cccc(CNC(=O)c2cccc(-n3c(C)nc4cccnc43)c2C)c1,"inconclusive: 35.5 µM [inhibitor, single point]",
OC1(c2ccc(Cl)cc2)CCN(Cc2cn[nH]c2-c2ccccc2)CC1,"inconclusive: 10 µM [inhibitor, partial curve]",
NS(=O)(=O)c1ccc(NCc2cc(Cl)ccc2OCc2ccc(F)cc2)cc1,"inconclusive: 14.1 µM [inhibitor, partial curve, poor fit]",
CCOC(=O)C1=C(C)NC(SC)=C(C#N)C1CC(C)C (stereo not given),"inconclusive: 20 µM [inhibitor, partial curve, poor fit]",
O=C(Nc1ncc([N+](=O)[O-])s1)c1ccccc1Br,"inconclusive: 35.5 µM [inhibitor, single point]",
Cc1ccc(C2CCN(C(=O)Nc3ccc(Cl)c(Cl)c3)C2)cc1 (stereo not given),"inconclusive: 20 µM [inhibitor, single point]",
CCOc1ccc2nc(N(Cc3cccnc3)C(=O)C3CCCCC3)sc2c1,"inconclusive: 17.8 µM [inhibitor, partial curve, poor fit]",
Cc1cccc(OCCCOc2cccc3cccnc23)c1C,"inconclusive: 17.8 µM [inhibitor, single point]",
O=C1NC(=O)/C(=C\c2ccccc2Oc2ccc(F)c(F)c2)S1,"inconclusive: 15.8 µM [inhibitor, single point]",
CCNC(=S)N/N=C(\C)c1ccco1,"inconclusive: 8.91 µM [inhibitor, partial curve, poor fit]",
CCCCN(CCCC)CCCNC(=O)C1CC(c2cc(C(F)(F)F)cc(C(F)(F)F)c2)=NO1 (stereo not given),"inconclusive: 0.708 µM [inhibitor, full curve, poor fit]",
CCc1nnc(NC(=O)CSc2nc3[nH]c(=O)cc(O)c3s2)s1,,inactive: -0.705%
O=C(Nc1ccccc1)C1CCCCN1S(=O)(=O)c1ccccc1 (stereo not given),,inactive: -21.6%
CCC(C)(C)C1CCc2[nH]nc(C(=O)NCc3ccccn3)c2C1 (stereo not given),"inconclusive: 35.5 µM [inhibitor, single point]",
Cc1ccc(NC(=O)c2nc[nH]c2C(=O)NCCCCCNC(=O)OC(C)(C)C)cc1,"inconclusive: 31.6 µM [inhibitor, single point]",

SMILES,Potency,"activity, negative = inhibition"
Cc1sc2nnn(CC(=O)N3CCN(C(=O)c4ccco4)CC3)c(=O)c2c1C,,inactive: -21.5%
CCOc1ccc(S(=O)(=O)/N=C(/Nc2ccc(C(C)=O)cc2)c2ccccc2)cc1,"inconclusive: 35.5 µM [inhibitor, single point]",
O=C(COc1ccc(F)cc1Br)N1CCN(c2ncccn2)CC1,,inactive: 1.1%
O=C(Nc1ccc2nc3n(c(=O)c2c1)CCCCC3)c1cc([N+](=O)[O-])ccc1F,"inconclusive: 22.4 µM [inhibitor, single point]",
CC1CCc2[nH]c3ccc(C(=O)N(C)CC(=O)Nc4ccccc4Br)cc3c2C1 (stereo not given),"inconclusive: 25.1 µM [inhibitor, single point]",
Cc1cc(N2CCN(c3ccc(F)cc3)CC2)n2nc(-c3ccc(Cl)cc3)nc2n1,"inconclusive: 0.112 µM [inhibitor, full curve, poor fit]",
O=C(NCc1ccccc1)c1cc(C2CCCCN2S(=O)(=O)c2ccccc2)on1 (stereo not given),,inactive: -4.08%
Cn1nc(CC(=O)NCc2ccc(F)cc2)c2ccccc2c1=O,,inactive: -13%
O=C(CN1CCN(Cc2ccc(Cl)cc2)CC1)N/N=C/C=C/c1ccccc1[N+](=O)[O-],"inconclusive: 35.5 µM [inhibitor, single point]",
O=C(C[C@@H]1C/C=C\C[C@H](NC(=O)OCC2c3ccccc3-c3ccccc32)C(=O)OC[C@H]2CCCN2C1=O)N[C@@H](CO)Cc1ccccc1,"inconclusive: 17.8 µM [inhibitor, single point]",
CCc1ccccc1NC(=O)CSc1nnc(-c2ccc(OC)cc2)s1,"inconclusive: 35.5 µM [inhibitor, single point]",
Clc1cccc(Cc2c(C3CCCCC3)nc3ccc(Br)cn23)c1,"inconclusive: 17.8 µM [inhibitor, partial curve, poor fit]",
COc1ccccc1CN1C[C@@H]2C[C@@H](c3ccc(C)cc3)N3CCC[C@@]23C1=O,"inconclusive: 0.631 µM [inhibitor, full curve, poor fit]",
COC(=O)Cc1ccc2sc(-c3ccccc3)nc2c1,"inconclusive: 5.62 µM [inhibitor, single point]",
CCOc1cc(C(=O)Nc2ccc(NC(=O)c3cc4ccccc4o3)c(OC)c2)cc(OCC)c1OCC,"inconclusive: 1.58 µM [inhibitor, partial curve, poor fit]",
CN(c1ccccc1)c1cc(Br)nc(Br)c1,,inactive: 16.5%
c1ccc(-c2cc(N3CCCCC3)c3ccccc3n2)cc1,"inconclusive: 35.5 µM [inhibitor, single point]",
Cc1cc(NC(=O)CCc2nc3cccnc3n2Cc2cccs2)ccc1Br,"inconclusive: 35.5 µM [inhibitor, single point]",
O=C(NNc1nc(-c2ccc(Br)cc2)cs1)c1ccco1,"inconclusive: 7.94 µM [inhibitor, partial curve]",
O=C(CC1C(=O)NC2CCCCC2N1C(=O)c1ccc([N+](=O)[O-])cc1)Nc1ccccc1 (stereo not given),,inactive: -7.89%
